{"source": "the supplement of paper PMC10037445", "key": {"RAW-Dual [1]": {"tested_on": "RAW-Dual", "assay": "NF-kB SEAP reporter activity, fold change vs agonist alone; cytotoxicity flag (confluency mask): not cytotoxic; higher = enhanced NF-kB activity", "outline": "(§1)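 RAW-Dual macrophages (50,000 cells/well in DMEM, 384-well plates) received 50 nL of library stock by pin tool, then a PRR agonist 1 h later, and were kept at 37 °C, 5% CO2. After 20 hours, supernatant was read for IRF by QuantiLuc luminescence and for NF-κB by QuantiBlue absorbance at 620 nm. Reporter activity is fold change over agonist-alone wells. Cytotoxic wells had IncuCyte confluency below 70% of agonist controls in both mask sets.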"}, "RAW-Dual [2]": {"tested_on": "RAW-Dual", "assay": "NF-kB SEAP reporter activity, fold change vs agonist alone; higher = enhanced NF-kB activity", "conditions": "library stock concentration (final ~1000-fold dilution): 10 mM", "outline": "as §1"}, "RAW-Dual [3]": {"tested_on": "RAW-Dual", "assay": "NF-kB SEAP reporter activity, fold change vs agonist alone; cytotoxicity flag (confluency mask): cytotoxic (confluency <70% of control); higher = enhanced NF-kB activity", "outline": "as §1"}, "[4]": {"conditions": "agonist: ODN 1826 (TLR9) 0.5 ug/mL"}, "[5]": {"conditions": "agonist: Pam2CSK4 (TLR2/6) 0.1 ug/mL"}, "[6]": {"conditions": "agonist: Pam3CSK4 (TLR2/1) 0.1 ug/mL"}, "[7]": {"conditions": "cytotoxicity flag (confluency mask): not cytotoxic, agonist: Imiquimod (TLR7) […]"}, "[8]": {"conditions": "cytotoxicity flag (confluency mask): not cytotoxic, agonist: MPLA (TLR4) […]"}, "[9]": {"conditions": "cytotoxicity flag (confluency mask): cytotoxic (confluency <70% of control), agonist: Imiquimod (TLR7) […]"}, "[10]": {"conditions": "cytotoxicity flag (confluency mask): cytotoxic (confluency <70% of control), agonist: MPLA (TLR4) […]"}}, "note": "In all, about 2,900 compounds were measured (“NF-kB SEAP reporter activity, fold change vs agonist alone”: median about 0.99, highest 2% from about 2.6 on). This is one part of the list.", "data": [{"smiles": "CC(NC(=O)C(NC(=O)OCc1ccccc1)C(C)C)C(=O)NC(CC(=O)O)C(=O)CF", "note": "(configuration not stated) (library stock concentration (final ~1000-fold dilution): 10 mM)", "values": [{"measurement": "NF-kB SEAP reporter activity", "setting": "RAW-Dual [1]; agonist: LPS (TLR4) 0.1 ug/mL", "value": 1.23}, {"measurement": "NF-kB SEAP reporter activity", "setting": "RAW-Dual [1]; [4]", "value": 0.939}, {"measurement": "NF-kB SEAP reporter activity", "setting": "RAW-Dual [1]; [5]", "value": 0.948}, {"measurement": "NF-kB SEAP reporter activity", "setting": "RAW-Dual [1]; [6]", "value": 1.03}]}, {"smiles": "CC(NC(=O)C(NC(=O)OCc1ccccc1)C(C)C)C(=O)NC(CC(=O)O)C(=O)CF", "note": "(configuration not stated)", "values": [{"measurement": "NF-kB SEAP reporter activity", "setting": "RAW-Dual [2]; [7]", "value": 0.964}, {"measurement": "NF-kB SEAP reporter activity", "setting": "RAW-Dual [2]; [8]", "value": 0.934}]}, {"smiles": "C=CC(=O)Nc1cccc(Oc2nc(Nc3ccc(N4CCN(C)CC4)cc3)ncc2Cl)c1", "values": [{"measurement": "NF-kB SEAP reporter activity", "setting": "RAW-Dual [2]; [7]", "value": 0.491}, {"measurement": "NF-kB SEAP reporter activity", "setting": "RAW-Dual [2]; [8]", "value": 0.339}]}, {"smiles": "C=CC(=O)Nc1cccc(Oc2nc(Nc3ccc(N4CCN(C)CC4)cc3)ncc2Cl)c1", "note": "(library stock concentration (final ~1000-fold dilution): 10 mM)", "values": [{"measurement": "NF-kB SEAP reporter activity", "setting": "RAW-Dual [1]; agonist: LPS (TLR4) 0.1 ug/mL", "value": 0.257}, {"measurement": "NF-kB SEAP reporter activity", "setting": "RAW-Dual [1]; [4]", "value": 0.175}, {"measurement": "NF-kB SEAP reporter activity", "setting": "RAW-Dual [1]; [5]", "value": 0.0969}, {"measurement": "NF-kB SEAP reporter activity", "setting": "RAW-Dual [1]; [6]", "value": 0.142}]}, {"smiles": "CC(C)(NS(=O)(=O)c1ccc2c(Cl)cnc(NC(=N)N)c2c1)C(=O)O.Cl", "values": [{"measurement": "NF-kB SEAP reporter activity", "setting": "RAW-Dual [2]; [7]", "value": 0.99}, {"measurement": "NF-kB SEAP reporter activity", "setting": "RAW-Dual [2]; [8]", "value": 0.923}]}, {"smiles": "CC(C)(NS(=O)(=O)c1ccc2c(Cl)cnc(NC(=N)N)c2c1)C(=O)O.Cl", "note": "(library stock concentration (final ~1000-fold dilution): 10 mM)", "values": [{"measurement": "NF-kB SEAP reporter activity", "setting": "RAW-Dual [1]; agonist: LPS (TLR4) 0.1 ug/mL", "value": 1.1}, {"measurement": "NF-kB SEAP reporter activity", "setting": "RAW-Dual [1]; [4]", "value": 1.01}, {"measurement": "NF-kB SEAP reporter activity", "setting": "RAW-Dual [1]; [5]", "value": 0.913}, {"measurement": "NF-kB SEAP reporter activity", "setting": "RAW-Dual [1]; [6]", "value": 0.764}]}, {"smiles": "CCOc1cc(N)c(Cl)cc1C(=O)NCC1CN(Cc2ccc(F)cc2)CCO1.O=C(O)CC(O)(CC(=O)O)C(=O)O", "note": "(configuration not stated)", "values": [{"measurement": "NF-kB SEAP reporter activity", "setting": "RAW-Dual [2]; [7]", "value": 0.993}, {"measurement": "NF-kB SEAP reporter activity", "setting": "RAW-Dual [2]; [8]", "value": 1.05}]}, {"smiles": "CCOc1cc(N)c(Cl)cc1C(=O)NCC1CN(Cc2ccc(F)cc2)CCO1.O=C(O)CC(O)(CC(=O)O)C(=O)O", "note": "(configuration not stated) (library stock concentration (final ~1000-fold dilution): 10 mM)", "values": [{"measurement": "NF-kB SEAP reporter activity", "setting": "RAW-Dual [1]; agonist: LPS (TLR4) 0.1 ug/mL", "value": 1.02}, {"measurement": "NF-kB SEAP reporter activity", "setting": "RAW-Dual [1]; [4]", "value": 1.09}, {"measurement": "NF-kB SEAP reporter activity", "setting": "RAW-Dual [1]; [5]", "value": 0.988}, {"measurement": "NF-kB SEAP reporter activity", "setting": "RAW-Dual [1]; [6]", "value": 1.11}]}, {"smiles": "O=C(Oc1cccc(F)c1OC(=O)c1cccc(O)c1)c1cccc(O)c1", "note": "(library stock concentration (final ~1000-fold dilution): 10 mM)", "values": [{"measurement": "NF-kB SEAP reporter activity", "setting": "RAW-Dual [3]; agonist: LPS (TLR4) 0.1 ug/mL", "value": 1.21}, {"measurement": "NF-kB SEAP reporter activity", "setting": "RAW-Dual [3]; [4]", "value": 0.597}, {"measurement": "NF-kB SEAP reporter activity", "setting": "RAW-Dual [3]; [5]", "value": 0.639}, {"measurement": "NF-kB SEAP reporter activity", "setting": "RAW-Dual [3]; [6]", "value": 0.541}]}, {"smiles": "O=C(Oc1cccc(F)c1OC(=O)c1cccc(O)c1)c1cccc(O)c1", "values": [{"measurement": "NF-kB SEAP reporter activity", "setting": "RAW-Dual [2]; [9]", "value": 0.964}, {"measurement": "NF-kB SEAP reporter activity", "setting": "RAW-Dual [2]; [10]", "value": 1.24}]}, {"smiles": "CCn1c(=O)c(-c2ccc(Cl)cc2Cl)cc2cnc(Nc3ccc(N4CCNCC4)c(F)c3)nc21", "values": [{"measurement": "NF-kB SEAP reporter activity", "setting": "RAW-Dual [2]; [9]", "value": 0.95}, {"measurement": "NF-kB SEAP reporter activity", "setting": "RAW-Dual [2]; [10]", "value": 0.735}]}, {"smiles": "CCn1c(=O)c(-c2ccc(Cl)cc2Cl)cc2cnc(Nc3ccc(N4CCNCC4)c(F)c3)nc21", "note": "(library stock concentration (final ~1000-fold dilution): 10 mM)", "values": [{"measurement": "NF-kB SEAP reporter activity", "setting": "RAW-Dual [3]; agonist: LPS (TLR4) 0.1 ug/mL", "value": 0.244}, {"measurement": "NF-kB SEAP reporter activity", "setting": "RAW-Dual [3]; [4]", "value": 1.06}, {"measurement": "NF-kB SEAP reporter activity", "setting": "RAW-Dual [3]; [5]", "value": 0.337}, {"measurement": "NF-kB SEAP reporter activity", "setting": "RAW-Dual [3]; [6]", "value": 0.331}]}, {"smiles": "COc1ccc(Cl)cc1NC(=O)Nc1cc(C)nc2ccccc12", "note": "(library stock concentration (final ~1000-fold dilution): 10 mM)", "values": [{"measurement": "NF-kB SEAP reporter activity", "setting": "RAW-Dual [1]; agonist: LPS (TLR4) 0.1 ug/mL", "value": 1.18}, {"measurement": "NF-kB SEAP reporter activity", "setting": "RAW-Dual [1]; [4]", "value": 1.05}, {"measurement": "NF-kB SEAP reporter activity", "setting": "RAW-Dual [1]; [5]", "value": 0.871}, {"measurement": "NF-kB SEAP reporter activity", "setting": "RAW-Dual [1]; [6]", "value": 0.996}]}, {"smiles": "COc1ccc(Cl)cc1NC(=O)Nc1cc(C)nc2ccccc12", "values": [{"measurement": "NF-kB SEAP reporter activity", "setting": "RAW-Dual [2]; [7]", "value": 0.868}, {"measurement": "NF-kB SEAP reporter activity", "setting": "RAW-Dual [2]; [8]", "value": 1.04}]}]}
